About 220 (0.56%) of roughly 39,000 compounds showed activity. Some of the results follow.
Tested on: Escherichia coli K-12 BW25113
Experiment: relative growth (OD600 normalised to plate interquartile mean) (fraction); higher = less growth inhibition, active = 0.2 or less
Conditions: 50 µM; LB; incubation time: overnight (16-24 h)
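Note: static incubation at 37 °C against the wild-type strain, values averaged over two biological replicates.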

| Compound | relative growth |
| --- | --- |
| C[C@H]1CN([C@@H](C)CO)C(=O)CCCn2cc(nn2)CO[C@@H]1CN(C)S(=O)(=O)c1ccc(Oc2ccccc2)nc1 | inactive: 0.944 |
| C[C@@H]1CCCCO[C@H](CN(C)C)[C@H](C)CN([C@H](C)CO)C(=O)c2cc(NC(=O)Nc3ccc(C(F)(F)F)cc3)ccc2O1 | inactive: 0.908 |
| COc1ccc(CN(C)C[C@@H]2Oc3ccc(NC(=O)C4CC4)cc3CC(=O)N([C@H](C)CO)C[C@H]2C)cc1 | inactive: 0.952 |
| Cc1ccc(S(=O)(=O)N(C)C[C@H]2OCCCC[C@H](C)Oc3ccc(NC(=O)CCCCCC(=O)Nc4ccccc4N)cc3C(=O)N([C@@H](C)CO)C[C@@H]2C)cc1 | inactive: 1.01 |
| C[C@@H]1CN([C@H](C)CO)C(=O)c2cccc(NS(=O)(=O)c3cccs3)c2O[C@H]1CN(C)S(=O)(=O)c1cn(C)cn1 | inactive: 1 |
| COCCOC(=O)N1C(=O)[C@@]2(c3cc(C#CC4(O)CCCCCC4)ccc31)[C@H](C(=O)N1CCN(c3ncccn3)CC1)[C@H]1C(=O)O[C@H](c3ccccc3)[C@H](c3ccccc3)N1[C@@H]2c1ccccc1OCCO | inactive: 1.04 |
| O=C(O)CCCCc1ccc(F)cc1 | inactive: 1.01 |
| C[C@@H]1CN([C@@H](C)CO)C(=O)Cc2cc(NS(=O)(=O)c3cccs3)ccc2O[C@H]1CN(C)CC1CC1 | inactive: 1.01 |
| COc1cc(Nc2ncc3c(n2)-c2ccc(Cl)cc2C(c2c(F)cccc2OC)=NC3)ccc1C(=O)O | inactive: 1.01 |
| COc1ccc(NC(=O)Nc2ccc3c(c2)[C@H]2C[C@H](CC(=O)NCc4ccccn4)O[C@@H](CO)[C@H]2O3)cc1 | inactive: 0.989 |
| COc1cccc([C@@H](NC(=O)C2CCN(Cc3ccc(Oc4ccccc4)cc3)CC2)c2ccccn2)c1 | inactive: 1.01 |
| CC(=O)Nc1nnc(-c2ccno2)o1 | inactive: 1.01 |
| CN(C)S(=O)(=O)N1CCC[C@H](C(N)=O)C1 | inactive: 0.99 |
| C[C@@H]1CCCCO[C@@H](CN(C)Cc2ccncc2)[C@@H](C)CN([C@@H](C)CO)C(=O)c2cc(NS(C)(=O)=O)ccc2O1 | inactive: 1.03 |
| CNC[C@H]1Oc2ccc(NS(=O)(=O)c3cn(C)cn3)cc2C(=O)N([C@@H](C)CO)C[C@@H]1C | inactive: 0.982 |
| Cn1cnc(CO)n1 | inactive: 0.991 |
| Cc1noc(C)c1NC(=O)N(C)C[C@H]1Oc2ccc(NC(=O)Nc3cccc4ccccc34)cc2C(=O)N([C@@H](C)CO)C[C@@H]1C | inactive: 0.983 |
| CC(C)NC(=O)N(C)C[C@H]1Oc2c(NC(=O)C3CCOCC3)cccc2C(=O)N([C@@H](C)CO)C[C@H]1C | inactive: 1 |

Source: the supplement of paper PMC9446081
